How the values were obtained:
Human primary T cells = assay: In vitro antigen-independent expansion of T cells transduced with constitutive or ACZ-regulated mbIL15 constructs (cell numbers by flow cytometry); format: cell-based; details: T cells expressing constitutive construct, no ACZ, in 10 days
Method: T cells were thawed, cells were washed and counted. T cells were mixed with CD3/CD28 beads (Invitrogen cat#11141D) at 3:1 bead to T cell ratio. 5×10^5 cells/well were added to 24-well plates in 500 μL media. Cells were activated for 24 hrs. Next day, lentivirus was thawed and added to each well at different volumes. After 24 hrs, 500 μL of fresh media was added to wells, and cells were expanded by adding equal volume of fresh media every 2-3 days to keep cell density at 0.5-1×10^6/mL. Cells were analyzed by flow cytometry to confirm expression on day 5 or 6. Cells were expanded for 9-10 days.
After T cell transduction and expansion, CD3/CD28 beads were removed using magnets, cells were washed twice, resuspended in fresh media and counted. Cells were plated in 12-well plates at 1×10^6 in 2 mL. One well of untransduced cells was cultured in the presence of 2 ng/mL IL15 as a control. T cells expressing regulated constructs were cultured in the absence or presence of acetazolamide (ACZ, 30, 10, 3, 1, 0.3 μM). Cell numbers were monitored by flow cytometry every 3-4 days and cells were cultured for 10-12 days. At each time point 100 μL of cells were collected from wells and analyzed by flow cytometry. Cells were split as needed. […] Volumes for each well were recorded before and after split to calculate final volume in cell number assessment. […]
T cell numbers were determined by flow cytometry. […]

T cells = assay: IL15 expression on T cells in vivo on day 25 (IL15Ra-Fc staining, flow cytometry); design: species or system NSG mice; details: day 25, constitutive constructs
Method: Human primary T cells capable of expressing constitutive mbIL15 or ACZ-regulated mbIL15 were prepared in accordance with methods described in Example 1 above. After T cell transduction and expansion, CD3/CD28 beads were removed using magnets, cells were washed twice, resuspended in fresh media and counted. T cells were mixed with expanded NK cells and each animal received 5×10^6 T cells and 2×10^6 expanded NK cells. Cells were infused by intravenous injections into NSG mice. Animals infused with T cells expressing regulated constructs were dosed daily with 200 mg/kg ACZ or vehicle by PO injections. Every 3-4 days, 50 μL blood was analyzed by flow cytometry for presence of T cells and NK cells using antibodies against mouse and human CD45, CD3 and CD56. IL15 expression on day 25 was analyzed using IL15Ra-Fc and fluorochrome conjugated anti-human IgG antibody.
IL15 expression on T cells in vivo on day 25 was analyzed by flow cytometry (FIG. 5C). T cells transduced with constitutive constructs IL15-292 and IL15-294 expressed high levels of IL15 (82% and 61%). IL15 expression was <1.5% in vehicle-treated IL15-293 and IL15-295 as well as EV groups. IL15 expression levels were 11% and 9% on T cells transduced with IL15-293 and IL15-295 in groups treated with ACZ.

B1: IL15-294: constitutive mbIL15 construct with altered B7-1 cytoplasmic tail (AA SEQ ID NO: 26) (protein)
chain: MDMRVPAQLLGLLLLWLSGARC[gap - about 120 residues]GSGSGSGSGSGSGSGSGSGSGSGSGSGSGSKQEHFPDNLLPSWAITLISVNGIFVICCLTYCFAPRCRERARNERLRRETVRPVGS
T cell expansion (Human primary T cells): 21 fold
IL15 expression on T cells (T cells): 61%
